The campaign covered roughly 360,000 compounds. About 16,000 (4.4%) were called active. This list was built around the results that the source calls inconclusive (neither active nor inactive); the mix of calls is not that of the screen. Calls follow the shape of the dose curve; as a rule, active = well fitted inhibition curve with a large enough effect; inconclusive = small, poorly fitted or top-dose-only effect; inactive = no such curve, though single readings can be large or run the other way. Where the call is inconclusive, the potency comes from a doubtful curve fit.
target: Bromodomain adjacent to zinc finger domain protein 2B (Homo sapiens) (UniProt Q9UIF8); test: qHTS Assay for Inhibitors of BAZ2B; conditions: AlphaScreen BAZ2B-H3K14Ac peptide displacement; activity change, negative = inhibition: at 114 µM (top of the series); also: nearly all actives have a fitted effect of over 60% in size
Method in brief: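 BAZ2B 50 nM plus b-H3(5-23)K14Ac 50 nM, PBS pH 7.4/0.01% Tween-20, 30 min RT; compound added (max 110 uM), 30 min RT; streptavidin donor/Ni-chelate acceptor beads 10 ug/mL final, 20 min dark; AlphaScreen read.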
% is scaled to controls: 0 for no effect and ±100 for the full control effect; potency is read from the fitted curve at half-maximal effect; tags tell the direction and shape of the fitted curve.

Chain of UniProt Q9UIF8 (Q9UIF8 whole entry, looked up, the tested form may be a part): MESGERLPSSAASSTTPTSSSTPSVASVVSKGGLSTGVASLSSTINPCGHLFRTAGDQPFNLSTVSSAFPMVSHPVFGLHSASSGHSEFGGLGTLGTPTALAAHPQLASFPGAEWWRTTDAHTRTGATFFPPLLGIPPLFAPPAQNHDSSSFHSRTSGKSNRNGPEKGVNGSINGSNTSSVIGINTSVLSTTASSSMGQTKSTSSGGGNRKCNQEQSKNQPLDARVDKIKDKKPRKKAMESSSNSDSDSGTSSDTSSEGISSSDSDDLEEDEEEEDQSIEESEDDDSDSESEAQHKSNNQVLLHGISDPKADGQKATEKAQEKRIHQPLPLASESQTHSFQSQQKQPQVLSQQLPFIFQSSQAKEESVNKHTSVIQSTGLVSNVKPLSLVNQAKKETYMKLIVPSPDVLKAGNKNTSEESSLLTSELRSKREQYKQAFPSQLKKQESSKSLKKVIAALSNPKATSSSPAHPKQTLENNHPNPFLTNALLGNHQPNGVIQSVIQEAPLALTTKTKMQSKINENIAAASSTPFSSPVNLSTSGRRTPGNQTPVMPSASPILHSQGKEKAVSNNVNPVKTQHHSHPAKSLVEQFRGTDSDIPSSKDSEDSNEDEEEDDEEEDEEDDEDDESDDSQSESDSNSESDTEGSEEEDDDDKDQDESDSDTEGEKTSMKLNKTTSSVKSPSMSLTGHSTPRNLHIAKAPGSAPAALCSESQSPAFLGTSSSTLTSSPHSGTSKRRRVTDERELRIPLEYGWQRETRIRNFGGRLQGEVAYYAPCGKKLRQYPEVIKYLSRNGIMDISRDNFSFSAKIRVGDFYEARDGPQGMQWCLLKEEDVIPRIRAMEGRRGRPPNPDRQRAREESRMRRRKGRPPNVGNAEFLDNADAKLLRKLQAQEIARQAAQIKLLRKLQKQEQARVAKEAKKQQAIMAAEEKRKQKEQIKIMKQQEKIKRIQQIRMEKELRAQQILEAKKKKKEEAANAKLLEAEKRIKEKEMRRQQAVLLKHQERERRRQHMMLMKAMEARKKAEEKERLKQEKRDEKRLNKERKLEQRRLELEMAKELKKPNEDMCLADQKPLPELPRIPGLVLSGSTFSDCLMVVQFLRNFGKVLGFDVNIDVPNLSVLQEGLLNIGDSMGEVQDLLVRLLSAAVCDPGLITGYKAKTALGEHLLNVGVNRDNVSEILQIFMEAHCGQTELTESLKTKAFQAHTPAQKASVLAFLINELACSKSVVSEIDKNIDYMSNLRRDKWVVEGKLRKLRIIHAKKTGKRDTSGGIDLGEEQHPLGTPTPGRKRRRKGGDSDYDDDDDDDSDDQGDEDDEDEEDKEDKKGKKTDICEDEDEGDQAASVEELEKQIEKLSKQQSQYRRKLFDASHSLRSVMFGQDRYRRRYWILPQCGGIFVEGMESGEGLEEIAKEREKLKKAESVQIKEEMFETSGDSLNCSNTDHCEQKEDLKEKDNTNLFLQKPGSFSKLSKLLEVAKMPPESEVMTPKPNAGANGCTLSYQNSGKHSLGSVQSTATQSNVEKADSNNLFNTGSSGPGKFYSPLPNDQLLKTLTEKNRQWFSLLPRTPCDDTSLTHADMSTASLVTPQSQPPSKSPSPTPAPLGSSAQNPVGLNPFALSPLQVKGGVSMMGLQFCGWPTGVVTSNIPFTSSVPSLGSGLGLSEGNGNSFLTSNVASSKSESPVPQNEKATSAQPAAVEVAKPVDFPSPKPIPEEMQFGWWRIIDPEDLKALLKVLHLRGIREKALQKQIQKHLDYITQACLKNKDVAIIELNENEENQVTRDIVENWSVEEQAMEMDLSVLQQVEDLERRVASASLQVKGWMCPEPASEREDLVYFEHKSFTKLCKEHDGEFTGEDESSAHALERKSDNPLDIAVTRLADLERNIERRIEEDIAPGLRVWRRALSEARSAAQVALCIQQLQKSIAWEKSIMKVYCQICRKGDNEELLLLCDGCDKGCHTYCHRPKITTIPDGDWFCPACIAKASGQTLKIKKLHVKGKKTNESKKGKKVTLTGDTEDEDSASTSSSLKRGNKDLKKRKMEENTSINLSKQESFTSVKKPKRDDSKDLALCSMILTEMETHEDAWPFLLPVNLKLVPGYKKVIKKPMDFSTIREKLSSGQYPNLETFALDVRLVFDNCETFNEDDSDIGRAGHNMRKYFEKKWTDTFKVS

Row | Structure (SMILES) | Potency | activity change, negative = inhibition
1 | CCOC(=O)c1c(NC(C)=O)sc(/C(C)=N/Nc2ccc(C(=O)O)cc2)c1C | inconclusive: 79.4 µM [inhibitor, single point] | 
2 | CCOC(=O)NC(=O)/C(C#N)=N\Nc1ccc(Cl)cc1 |  | inactive: -37.2%
3 | Cc1ccc(OCC(=O)c2cc(C)n(Cc3cccs3)c2C)c([N+](=O)[O-])n1 | inconclusive: 56.2 µM [inhibitor, partial curve] | 
4 | CSc1ccccc1C(=O)NCCS(=O)(=O)N1CCN(c2ccc(F)cc2)CC1 |  | inactive: 8.64%
5 | O=S(=O)(O)c1cccc(N=Nc2c(O)ccc3ccccc23)c1 | active: 11.2 µM | 
6 | COc1cc(/C=C2\CCCc3c2nc2ccccc2c3C(=O)O)cc(Br)c1O | inconclusive: 79.4 µM [inhibitor, single point] | 
7 | Cn1cccc1CC(=O)NNC(=S)Nc1ccc(Cl)cc1Cl | inconclusive: 79.4 µM [inhibitor, single point] | 
8 | CCc1cc(=O)[nH]c(SCc2cccnc2)n1 |  | inactive: 4.3%
9 | O=C(CCCN1C(=O)/C(=C\c2ccco2)SC1=S)Nc1ccc(O)cc1C(=O)O | active: 14.1 µM | 
10 | O=C(CN1CCN(S(=O)(=O)c2ccccc2[N+](=O)[O-])CC1)NC(=O)NCc1ccco1 | inconclusive: 50.1 µM [inhibitor, partial curve] | 
11 | Cc1ccc(NC(=O)CC2Nc3ccccc3NC2=O)cc1C (configuration not stated) | inconclusive: 89.1 µM [inhibitor, single point] | 
12 | O=C(O)C1C2C=CC(CC2)C1C(=O)O (configuration not stated) | active: 50.1 µM | 
13 | COc1cc(C2CC(=O)Oc3c(C(CCN4CCN(c5ccccc5)CC4)c4ccc(N(C)C)cc4)c(OC)cc(OC)c32)cc(OC)c1OC (configuration not stated) | active: 7.94 µM | 
14 | CCC(C)NC(=O)Cn1c(-c2ccccc2)cc(C(C)=O)c1C (configuration not stated) | inconclusive: 56.2 µM [inhibitor, partial curve] | 
15 | O=[N+]([O-])c1cccc(/C=C2\CCC(/C=N/Nc3ccc4ccccc4n3)=C2N2CCOCC2)c1 | inconclusive: 89.1 µM [inhibitor, single point] | 
16 | Cc1ccc2[nH]c(C)c(CCNC(=O)C3CCCCC3C(=O)OCC(F)(F)F)c2c1 (configuration not stated) | inconclusive: 50.1 µM [inhibitor, partial curve] | 
17 | CC(CNC(=O)c1cncc(O)c1)NC(=O)c1cncc(O)c1 (configuration not stated) |  | inconclusive: -107% [inhibitor]
18 | COc1ccccc1CNC(=O)CSc1ccc(C(=O)Nc2ccccc2OC)cc1[N+](=O)[O-] | inconclusive: 89.1 µM [inhibitor, single point] | 
19 | S=C(Nc1ccc(Nc2ccccc2)cc1)Nc1ccccn1 | active: 15.8 µM | 
20 | COC(=O)CCCC[C@H]1SC[C@H]2NC(=O)N[C@]21O | active: 0.891 µM | 
21 | COc1ccc2c(Sc3ccc(C)cc3)c(C(=O)NC(C)C)[nH]c2c1 | inconclusive: 79.4 µM [inhibitor, single point] | 
22 | CCOc1ccc(NC(=O)c2cc(S(=O)(=O)NC3CCCCCC3)ccc2F)cc1 |  | inactive: 0.521%
23 | COc1ccc(/C=N/NC(C)(C)C)c(OC)c1 | inconclusive: 79.4 µM [inhibitor, single point] | 
24 | Cc1ccccc1-c1noc(-c2ccc(NCc3ccco3)c([N+](=O)[O-])c2)n1 |  | inactive: -4.23%

Row | Structure (SMILES) | Potency | activity change, negative = inhibition
25 | C=CCNC(=O)c1onc(CSc2ccc(F)c(F)c2)c1C(=O)O | inconclusive: 79.4 µM [inhibitor, single point] | 
26 | O=C(CCCCCNc1nc(=S)[nH]c2ccccc12)NCCc1c[nH]c2ccccc12 | inconclusive: 70.8 µM [inhibitor, partial curve] | 
27 | Cc1c(C(=O)N2CCCCC2)c(S(=O)(=O)NCc2ccc(Cl)cc2)c(C)n1C | inconclusive: 25.1 µM [inhibitor, single point] | 
28 | COC(=O)c1ccc(NCCC(=O)O)cc1 |  | inactive: 2.43%
29 | O=C(CSc1nc2ccccc2s1)Nc1ncccn1 | inconclusive: 89.1 µM [inhibitor, single point] | 
30 | Cc1cc2c([nH]c3ccccc32)c2c1OC(C)(C)C=C2 | inconclusive: 50.1 µM [inhibitor, partial curve] | 
31 | C=CCn1c(SCc2nc3ccccc3[nH]2)nnc1-c1ccccn1 | inconclusive: 79.4 µM [inhibitor, single point] | 
32 | CC(=O)C1=C(O)C(=O)N(CCC(=O)O)C1c1ccccc1[N+](=O)[O-] (configuration not stated) | inconclusive: 89.1 µM [inhibitor, single point] | 
33 | O=C(CNCc1ccco1)Nc1ccccc1-n1cccc1 | inconclusive: 89.1 µM [inhibitor, single point] | 
34 | CN(C)c1ccc(NC(=O)CSc2n[nH]c(-c3ccco3)n2)cc1 | inconclusive: 35.5 µM [inhibitor, partial curve] | 
35 | Cc1cc(Br)c2c(c1)/C(=C/C(=O)c1cccs1)C(=O)N2 | inconclusive: 35.5 µM [inhibitor, partial curve] | 
36 | COc1ccccc1/C=C/C=N/n1c(-c2cc(C)[nH]n2)n[nH]c1=S | inconclusive: 44.7 µM [inhibitor, partial curve] | 
37 | COc1cccc(NC(=O)CN(C)CC(=O)Nc2ccc(C)c([N+](=O)[O-])c2)c1 | inconclusive: 50.1 µM [inhibitor, partial curve] | 
38 | O=C(CSc1ncc(-c2ccc(F)cc2)[nH]1)N1CCCCC1 | inconclusive: 89.1 µM [inhibitor, single point] | 
39 | O=C(Cn1c(=O)nc(-c2ccccc2)c2ccccc21)NCc1ccccc1Cl |  | inactive: -8.18%
40 | C/C(=C\c1ccco1)C1Nc2cccc3cccc(c23)N1 | inconclusive: 44.7 µM [inhibitor, partial curve] | 
41 | C(=C\c1ccco1)/c1nc2ccccc2[nH]1 | inconclusive: 50.1 µM [inhibitor, partial curve] | 
42 | S=c1[nH]nc(NCCCN2CCOCC2)s1 | active: 31.6 µM | 
43 | COc1cccc(N=Nc2ccc(O)c3ncccc23)c1 | active: 7.94 µM | 
44 | COc1cc(OC)c2c(-c3ccccc3)cc(=O)oc2c1C(CCN1CCCCC1)c1ccc2c(c1)OCO2 (configuration not stated) | inconclusive: 56.2 µM [inhibitor, partial curve] | 
45 | CCOC(=O)c1c(C)[nH]c(C)c1S(=O)(=O)NCC(=O)NCc1cccc(C)c1 |  | inactive: -11.8%
46 | Cc1c(C(=O)N2CCCCC2)c(S(=O)(=O)N2CCC(C)CC2)c(C)n1C |  | inactive: -14.1% [at 57.1 µM]
47 | Cc1nc(C)c(-c2csc(Nc3ccccn3)n2)s1 | inconclusive: 28.2 µM [inhibitor, single point] | 
48 | COc1ccc(N2CCN(C(=O)c3ccccc3NC(=O)c3ccccc3)CC2)cc1 |  | inactive: -37.8%

Row | Structure (SMILES) | Potency | activity change, negative = inhibition
49 | Cc1c(C)c2ccc(Oc3ccc([N+](=O)[O-])cc3C(F)(F)F)c(C)c2oc1=O |  | inactive: 2.87% [at 57.1 µM]
50 | Cc1ccc(N(CCC(=O)N2CCOCC2)S(=O)(=O)c2ccccc2)cc1 |  | inactive: -2.3%
51 | COc1ccc(NC(=O)/C=C/c2ccc(Br)o2)cn1 | inconclusive: 56.2 µM [inhibitor, partial curve, poor fit] | 
52 | COc1ccc(OC)c(NC(=O)CCC(=O)Nc2nnc(C(C)C)s2)c1 |  | inactive: -32%
53 | CCn1c(=S)sc2c(=O)n(CC(=O)Nc3ccccc3C(F)(F)F)c(C)nc21 | inconclusive: 89.1 µM [inhibitor, single point] | 
54 | CC(=O)Nc1nnc(C2=COCCO2)o1 | active: 79.4 µM | 
55 | CN(C)c1ccc(/C=N\NC(=O)CC#N)cc1 | inconclusive: 89.1 µM [inhibitor, single point] | 
56 | CCCCNCCOc1ccccc1-c1ccccc1 | inconclusive: 89.1 µM [inhibitor, single point] | 
57 | CCN(Cc1ccccc1)c1ccc(/C=N/NC(=S)NC(C)C)cc1 | inconclusive: 31.6 µM [inhibitor, full curve] | 
58 | CCCC(=O)NC(=S)Nc1ccc(N2CCN(C(=O)c3cccs3)CC2)cc1 | inconclusive: 31.6 µM [inhibitor, full curve] | 
59 | COC(=O)c1nc(NC(=O)c2ccccc2Cl)n[nH]1 | inconclusive: 89.1 µM [inhibitor, single point] | 
60 | CC(CN1CCCCC1)OC(=O)c1ccc2c(c1)OCO2 (configuration not stated) |  | inactive: 7.89%
61 | O=C1C(=O)N(Cc2cccnc2)C(c2ccccn2)/C1=C(/O)c1ccc(F)cc1 (configuration not stated) | inconclusive: 89.1 µM [inhibitor, single point] | 
62 | O=C(O)c1cc2nc(-c3ccccc3)cc(C(F)(F)F)n2n1 | inconclusive: 89.1 µM [inhibitor, single point] | 
63 | C=CCN1C(=O)c2oc3ccccc3c(=O)c2C1c1ccc(O)c(OC)c1 (configuration not stated) |  | inactive: -17.7%
64 | CC1CC(=O)C2=C(C1)Nc1ccccc1N=C2 (configuration not stated) |  | inactive: 5.63%
65 | Cc1ccc(Nc2nc(CSc3nnc(-c4cccnc4)n3-c3ccccc3C)cs2)cc1 | inconclusive: 70.8 µM [inhibitor, single point] | 
66 | COc1cc(NS(=O)(=O)c2ccc(N/C=C\C(=O)c3ccc(F)cc3)cc2)nc(OC)n1 |  | inactive: 3.39%
67 | O=C(CCN1CCCCC1)NCC1OCCc2ccccc21 (configuration not stated) | inconclusive: 89.1 µM [inhibitor, single point] | 
68 | CCc1cc(C(c2ccccc2OC)N2CCOCC2)c(NC(=O)c2ccccc2)s1 (configuration not stated) | inconclusive: 70.8 µM [inhibitor, single point] | 
69 | N#CC(C#N)=c1ccc2c(c1)N1C3=C(CCCC3)CC3CCCCC31N=2 (configuration not stated) | active: 1.78 µM | 
70 | CSc1ncc(CN2CCc3c([nH]c4ccccc34)C2c2cccc(C)n2)cn1 (configuration not stated) | inconclusive: 28.2 µM [inhibitor, full curve] | 
71 | CC(=O)C1=C(c2ccccc2)NC(=O)NC1c1ccc(O)c(O)c1 (configuration not stated) | inconclusive: 89.1 µM [inhibitor, single point] | 
72 | Cc1cccc(Cn2c(C)nc3ccc([N+](=O)[O-])cc3c2=O)c1 | inconclusive: 89.1 µM [inhibitor, single point] | 
